Measured values from publication PMC8329197, “Compounds targeting OSBPL7 increase ABCA1-dependent cholesterol efflux preserving kidney function in two models of kidney disease” (Nature Communications, 2021).

What was measured:
OSBPL7 = test system: T1, OSBPL7; test: Competition with ^3H-Cpd K UV cross-linking to FLAG-tagged OSBPL7 in HEK293 cells (immunoprecipitation, autoradiography); assay type: binding, human; conditions: unlabeled Cpd K at 50-fold excess; Cpd A, Cpd G 10 and 50 µM
T1 construct: Plasmids expressing each as a full-length protein with a C-terminal FLAG tag were obtained; expressed in transfected cells; host or cells: HEK293
Experimental: Briefly, a plasmid expressing a candidate target of interest fused with a FLAG tag was transfected into HEK293 cells. After 24 h, tritiated compound K at a concentration capable of inducing ABCA1-mediated cholesterol efflux (1.0 μM) was added for 3 h, then the live cells were exposed to UV-light (ʎ = 336 nm) to query potential compound/target cross-linking in situ. Cell lysates were prepared, the expressed protein was then selectively immunoprecipitated using an anti-FLAG antibody coupled to sepharose beads, bound proteins were separated by SDS-PAGE, and two identical blots were prepared and probed by western blot and by autoradiography to detect protein expression and presence or absence of compound crosslinking, respectively. The flow chart of this screen is illustrated in Fig. 2. Figure 2d illustrates the ability of Cpd A and Cpd G to displace tritiated Cpd K from overexpressed and immunoprecipitated OSBPL7. Figure 3b illustrates the use of this assay to detect binding of tritiated Cpd K to overexpressed and immunoprecipitated variants of OSBPL7 containing point mutations in the predicted oxysterol binging pocket of OSBPL7. […]

CYP = CYP Induction; assay type: in vitro ADME
GSH adduct = assay type: in vitro ADME
[1] = test system: Adriamycin (ADR)-induced nephropathy in Balb/c mice; test: ADR nephropathy: serum cholesterol and triglycerides; assay type: in vivo, mouse
ABCA1 protein = test: ABCA1 western blot in podocyte whole-cell lysates; assay type: cell-based, human; conditions: Cpd G 10 µM, Cpd A 5 µM; podocytes
Experimental: Cell lines were purchased from ATCC and subcultured for no more than passage 15, except for human podocytes, which were originally from Dr Jochen Reiser. Conditionally immortalized human podocytes were cultured under permissive conditions at 33 °C, in RPMI medium (Corning) containing 10% FBS (GIBCO), 1% penicillin/streptomycin, 0.01 mg/ml recombinant human insulin, 0.0055 mg/ml human transferrin (substantially iron-free), and 0.005 μg/ml sodium selenite (ITS, Corning). To induce differentiation, podocytes were cultured at 37 °C for 14 days in RPMI medium containing 10% FBS (GIBCO) and 1% penicillin/streptomycin. Differentiated podocytes were starved in RPMI-0.2% FBS for 18 h and then treated with 1 μM, 5 μM, and 10 μM of compounds freshly prepared in DMSO for 18 h at 37 °C as indicated.
Lysates, or cell fractions were incubated in Laemmli buffer at 55 °C for 10 min under reducing conditions. A total of 30 μg of protein from cell lysates or one-third of the volume collected in cell fraction preparations was separated by SDS-PAGE in 4–20% gradient gels (Biorad) and proteins were then transferred to PVDF membranes. […] Signals were detected after incubation with Westernbright ECL HRP substrate (Advansta) and luminescence signals were captured with Azure C600 Gel Imaging workstation (Azure Biosystems Inc, USA) or X-ray films.

[2] = biological target: human cannabinoid 1 receptor (hCB1-R) (Homo sapiens, UniProt P21554); test: Potency for binding to the CB1R in vitro (Ki); conditions: human CB1 receptor binding
Chain of human cannabinoid 1 receptor (hCB1-R) (P21554 whole entry): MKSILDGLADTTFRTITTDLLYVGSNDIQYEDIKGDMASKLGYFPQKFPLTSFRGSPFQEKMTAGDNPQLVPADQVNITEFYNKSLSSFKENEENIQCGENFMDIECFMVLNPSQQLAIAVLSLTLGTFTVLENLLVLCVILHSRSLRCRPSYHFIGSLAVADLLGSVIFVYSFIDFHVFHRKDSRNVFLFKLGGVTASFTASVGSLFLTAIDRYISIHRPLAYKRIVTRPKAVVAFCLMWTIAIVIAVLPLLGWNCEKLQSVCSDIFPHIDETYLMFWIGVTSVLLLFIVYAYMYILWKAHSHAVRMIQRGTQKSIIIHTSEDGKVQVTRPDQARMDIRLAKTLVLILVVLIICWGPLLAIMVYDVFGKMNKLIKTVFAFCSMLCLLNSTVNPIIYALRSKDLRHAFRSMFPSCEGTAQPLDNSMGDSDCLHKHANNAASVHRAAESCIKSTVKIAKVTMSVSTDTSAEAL

In the case of `O=C(N[C@@H]1CCCC[C@H]1O)c1cnc(OCC(F)(F)F)c(-c2ccc(Cl)c(Cl)c2)c1` [Cpd G], the “Competition for ^3H-Cpd K binding to OSBPL7” value (OSBPL7) is reported as “effective competitors”, the “CYP Induction” value (CYP) is reported as “Negative” and the GSH adduct (GSH adduct) is reported as “Negative”. For the same compound, the “Animals with sporadically high cholesterol levels (>122 mg/dL)” value ([1]; plasma, 28 days of treatment, ADR-challenged) was “none”, the “Cholesterol (mg/dL), Median(IQR)” value ([1]; serum, after ADR challenge) was 104(93-115) mg/dL and the “Cholesterol (mg/dL), Range” value ([1]; serum, after ADR challenge) was 85 to 121 mg/dL. For the same compound, the “Triglycerides (mg/dL), Median(IQR)” value ([1]; serum, after ADR challenge) was 113(84-133) mg/dL, the “Triglycerides (mg/dL), Range” value ([1]; serum, after ADR challenge) was 68 to 140 mg/dL and the “ABCA1 protein levels in whole-cell lysates” value (ABCA1 protein) was “significantly increased ABCA1 protein levels”. The Ki [2] was 1.32 µM.
